These results are taken from the supplement of paper PMC5919970.

Where a name gives a salt, the structure may show the parent alone. The full ranking holds about 2,000 compounds; the median of “fractional viability relative to vehicle” is about 0.92, and the lowest 2% start at about 0.11. This is one part of the list.

This test concerns TYKNU. The test is described as follows: fractional viability relative to vehicle; TYKNU is a high-grade serous ovarian cancer line; higher = less growth inhibition. The settings on record: 72 h, genotype: OPA1 knockout (sgOPA1 #2). In outline: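 TYKNU control cells or lentiCRISPRv2 knockout derivatives were seeded at 500 cells per well into drug-stamped 384-well plates holding a ~2100-compound library at 2 or 10 μM, in duplicate. Cells were grown at 37 °C in 5% CO2 in RPMI 1640 with 10% FBS, and drug treatment lasted 72 h. Viability was read by Cell Titer Glo luminescence. Duplicate treatment wells were averaged and normalised to duplicate control wells from the same plate position.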

For `CC1(C)S[C@@H]2[C@H](NC(=O)[C@H](N)c3ccccc3)C(=O)N2[C@H]1C(=O)O` [Ampicillin sodium], the fractional viability by setting is: (2uM) 0.875; (10uM) 0.926.
In the case of `CC1(C)S[C@@H]2[C@H](NC(=O)[C@H](N)c3ccccc3)C(=O)N2[C@H]1C(=O)O` [Ampicillin Trihydrate], the fractional viability was determined as 1 (2uM) and 0.972 (10uM).
For the compound `O=C(O)c1cc(=O)[nH]c(=O)[nH]1` [Orotic acid (6-Carboxyuracil)], the fractional viability (2uM) was 1.07 and the fractional viability (10uM) was found to be 1.13.
For `Cc1ccccc1C(C(=O)NC1CCCCC1)N(C(=O)Cn1ccnc1C)c1cccc(F)c1` (stereo not given) the same measures were 0.97 and 0.888.
For `Nc1c(CC(=O)O)cccc1C(=O)c1ccc(Br)cc1` [Bromfenac Sodium] the same measures were 0.899 and 0.953.
For `COc1cccc(Nc2c(C(N)=O)cnc3c(C)cc(S(=O)(=O)c4cccc(C(=O)N(C)C)c4)cc23)c1` the same measures were 0.745 and 0.751.
`C[C@H]1O[C@@H](n2cc(F)c(=O)[nH]c2=O)[C@H](O)[C@@H]1O` [Doxifluridine]: the fractional viability by setting is: (2uM) 1.5; (10uM) 1.24.
For `CC(C)(C)c1nc(-c2cccc(NS(=O)(=O)c3c(F)cccc3F)c2F)c(-c2ccnc(N)n2)s1`, in that order: 0.709 and 0.749.
Regarding `O=c1c(-c2ccc(O)cc2)coc2cc(O)ccc12` [Daidzein], the fractional viability by setting is: (2uM) 0.931; (10uM) 0.846.
For `CC1(C)CC[C@]2(C(=O)O)CC[C@]3(C)C(=CC[C@@H]4[C@@]5(C)CC[C@H](O)C(C)(C)[C@@H]5CC[C@]43C)[C@@H]2C1` [Oleanolic Acid], in that order: 0.917 and 0.973.
For `O=C(O)CCCCC(CCSCc1ccccc1)SCc1ccccc1` (stereo not given), in that order: 1.23 and 0.919.
For `O=C(Oc1ccccc1C(=O)O)c1ccccc1O` [Sasapyrine] the same measures were 1.16 and 0.903.
Regarding `COc1c(C)c2c(c(O)c1C/C=C(\C)CCC(=O)O)C(=O)OC2` [Mycophenolic acid], the fractional viability (2uM) worked out at 0.66 and the fractional viability (10uM) amounted to 0.536.
For `CS(=O)(=O)c1ccc(-c2cnc(N)c(C(=O)Nc3ccccc3)n2)cc1`, in that order: 0.833 and 0.688.
For `CN(C)CCOc1ccc(-c2nc(-c3ccncc3)c(-c3ccc4c(c3)CC/C4=N\O)[nH]2)cc1` the same measures were 0.833 and 0.0595.
Take `C[C@H](Cc1cc2c(c(C(N)=O)c1)N(CCCO)CC2)NCCOc1ccccc1OCC(F)(F)F` [Silodosin]: the fractional viability by setting is: (2uM) 1.06; (10uM) 0.995.
As for `C/C(=C\C(=O)Nc1ccccc1C(=O)O)c1ccc2ccccc2c1`, the fractional viability (2uM) was found to be 1.15 and the fractional viability (10uM) was found to be 1.05.
For `O=C(c1ccc(/C=C/c2n[nH]c3ccccc23)cc1)N1CCNCC1`, in that order: 1.21 and 1.07.
For `Cc1ccc(-n2sc(=O)n(Cc3ccc(F)cc3)c2=O)cc1` the same measures were 0.801 and 0.457.
For `Cc1cc(Cl)ccc1OCCCC(=O)NO` [Droxinostat], in that order: 1.07 and 0.965.
Turning to `O=C(NCCN1CCOCC1)c1ccc(Cl)cc1`, the fractional viability reads like this: (2uM) 0.892; (10uM) 0.854.
For `COc1ccc2c(c1)c(CC(=O)N1CCOCC1)c(C)n2C(=O)c1ccc(Cl)cc1` the same measures were 0.923 and 0.939.
For `OC(c1cc(C(F)(F)F)nc2c(C(F)(F)F)cccc12)C1CCCCN1` (stereo not given) [Mefloquine HCl] the same measures were 1.17 and 0.2.
For `CC[C@H]1OC(=O)C[C@@H](O)[C@H](C)[C@@H](O[C@@H]2O[C@H](C)[C@@H](O)[C@H](N(C)C)[C@H]2O)[C@@H](CCN2C[C@H](C)C[C@H](C)C2)C[C@@H](C)C(=O)/C=C/C(C)=C/[C@@H]1CO[C@@H]1O[C@H](C)[C@@H](O)[C@@H](OC)[C@H]1OC` [Tilmicosin], in that order: 1.49 and 1.66.
`CCc1c(O)cc(O)c(C(=O)c2ccc(OCCN3CCOCC3)c(OC)c2)c1CC(=O)N(CCOC)CCOC`: the fractional viability is, setting by setting: (2uM) 0.791; (10uM) 0.482.
For `CNCCCC12CCC(c3ccccc31)c1ccccc12` [Maprotiline HCl], in that order: 1.03 and 0.874.
For `Cc1coc2c1C(=O)C(=O)c1c-2ccc2c1CCCC2(C)C` [Tanshinone IIA] the same measures were 0.599 and 0.327.
For `CN(C)Cc1cccc(N=C(c2ccccc2)c2c(O)[nH]c3cc(C(=O)N(C)C)ccc23)c1` the same measures were 1.13 and 0.78.
Turning to `C[C@@H](O)[C@H]1C(=O)N2C(C(=O)O)=C(S[C@@H]3CN[C@H](C(=O)N(C)C)C3)[C@H](C)[C@H]12` [Meropenem], the fractional viability was found to be 0.979 (2uM) and 0.992 (10uM).
For `Cn1nnc(-c2ccc3c(c2)[nH]c2nc(Cc4ccccc4)nc(NC4CCC(N)CC4)c23)n1` (stereo not given), in that order: 1.01 and 0.765.
On to `CC(=O)O[C@H]1C[C@@H]2CC[C@@H]3[C@H](CC[C@@]4(C)[C@H]3C[C@H]([N+]3(C)CCCCC3)[C@@H]4OC(C)=O)[C@@]2(C)C[C@@H]1N1CCCCC1` [Vecuronium Bromide], for which the fractional viability was determined as 0.956 (2uM) and 1.15 (10uM).
`C[C@]12C=CC(=O)C=C1CC[C@H]1[C@@H]3C[C@@H](O)[C@](O)(C(=O)CO)[C@@]3(C)C[C@H](O)[C@@]12F` [Triamcinolone] showed a fractional viability (2uM) of 1.25 and a fractional viability (10uM) of 1.11.
For `N#Cc1ccc(COC[C@H]2O[C@@H](n3c(NCc4ccc(Cl)c(Cl)c4)nc4c(N)ncnc43)[C@H](O)[C@@H]2O)cc1`, in that order: 0.698 and 0.364.
For `CC1(C)O[C@@H]2C[C@H]3[C@@H]4CCC5=CC(=O)CC[C@]5(C)[C@@]4(F)[C@@H](O)C[C@]3(C)[C@]2(C(=O)CCl)O1` [Halcinonide] the same measures were 1.02 and 0.893.
For the compound `C[C@@H]1O[C@@H](OC[C@H]2O[C@@H](Oc3c(-c4ccc(OCCO)c(OCCO)c4)oc4cc(OCCO)cc(O)c4c3=O)[C@H](O)[C@@H](O)[C@@H]2O)[C@H](O)[C@H](O)[C@H]1O` [Troxerutin], the fractional viability was 0.986 (2uM) and 1 (10uM).
